Test results published in the supplement of paper PMC8728848.
The list shows a part of the results.

How the values were obtained:
Assay in all cases: glycan array binding signal (z-score within array); higher = stronger binding
Settings in all cases: glycan notation: IUPAC condensed, linker removed
[1] = target: Neu5Ac(a2-3)Gal(b1-3)GalNAc
How it was run: (§1)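 The Consortium for Functional Glycomics database supplied 3228 glycan arrays, of which those lacking an available protein sequence were dropped. The binding signal, a within-array Z-score, was averaged across arrays of the same protein sequence and across linkers. Negative scores can be read as non-binding.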

[2] = target: Neu5Ac(a2-3)Gal(b1-3)GalNAc(b1-3)Gal(a1-4)Gal(b1-4)Glc
How it was run: as §1

[3] = target: Neu5Ac(a2-3)Gal(b1-3)GalNAc(b1-4)[Neu5Ac(a2-3)]Gal(b1-4)Glc
How it was run: as §1

[4] = target: Neu5Ac(a2-3)Gal(b1-3)GalNAc(b1-4)[Neu5Ac(a2-8)Neu5Ac(a2-3)]Gal(b1-4)Glc
How it was run: as §1

[5] = target: Neu5Ac(a2-3)Gal(b1-3)GalNAc6S
How it was run: as §1

[6] = target: Neu5Ac(a2-3)Gal(b1-3)GlcNAc
How it was run: as §1

[7] = target: Neu5Ac(a2-3)Gal(b1-3)GlcNAc(b1-2)Man
How it was run: as §1

[8] = target: Neu5Ac(a2-3)Gal(b1-3)GlcNAc(b1-2)Man(a1-3)[GlcNAc(b1-4)][Neu5Ac(a2-3)Gal(b1-3)GlcNAc(b1-2)Man(a1-6)]Man(b1-4)GlcNAc(b1-4)GlcNAc
How it was run: as §1

[9] = target: Neu5Ac(a2-3)Gal(b1-3)GlcNAc(b1-2)Man(a1-3)[Neu5Ac(a2-3)Gal(b1-3)GlcNAc(b1-2)Man(a1-6)]Man(b1-4)GlcNAc(b1-4)GlcNAc
How it was run: as §1

[10] = target: Neu5Ac(a2-3)Gal(b1-3)GlcNAc(b1-3)Gal(b1-3)GlcNAc
How it was run: as §1

[11] = target: Neu5Ac(a2-3)Gal(b1-3)GlcNAc(b1-3)Gal(b1-4)GlcNAc
How it was run: as §1

[12] = target: Neu5Ac(a2-3)Gal(b1-3)GlcNAc(b1-3)GalNAc
How it was run: as §1

[13] = target: Neu5Ac(a2-3)Gal(b1-3)GlcNAc(b1-4)Gal(b1-4)Glc
How it was run: as §1

[14] = target: Neu5Ac(a2-3)Gal(b1-3)GlcNAc(b1-6)GalNAc
How it was run: as §1

[15] = target: Neu5Ac(a2-3)Gal(b1-3)GlcNAc6S
How it was run: as §1

[16] = target: Neu5Ac(a2-3)Gal(b1-3)[Fuc(a1-4)]GlcNAc
How it was run: as §1

[17] = target: Neu5Ac(a2-3)Gal(b1-3)[Fuc(a1-4)]GlcNAc(b1-3)Gal(b1-3)[Fuc(a1-4)]GlcNAc
How it was run: as §1

[18] = target: Neu5Ac(a2-3)Gal(b1-3)[Fuc(a1-4)]GlcNAc(b1-3)Gal(b1-4)[Fuc(a1-3)]GlcNAc
How it was run: as §1

[19] = target: Neu5Ac(a2-3)Gal(b1-3)[GlcNAc(b1-6)]GalNAc
How it was run: as §1

[20] = target: Neu5Ac(a2-3)Gal(b1-3)[Neu5Ac(a2-6)]GalNAc
How it was run: as §1

[21] = target: Neu5Ac(a2-3)Gal(b1-3)[Neu5Ac(a2-6)]GlcNAc(b1-3)[Fuc(a1-3)[Gal(b1-4)]GlcNAc(b1-6)]Gal(b1-4)Glc
How it was run: as §1

[22] = target: Neu5Ac(a2-3)Gal(b1-3)]Neu5Ac(a2-3)Gal(b1-4)]GlcNAc
How it was run: as §1

Neu5Ac(a2-3)Gal(b1-4)Glc = target: Neu5Ac(a2-3)Gal(b1-4)Glc
How it was run: as §1

[23] = target: Neu5Ac(a2-3)Gal(b1-4)GlcNAc
How it was run: as §1

[24] = target: Neu5Ac(a2-3)Gal(b1-4)GlcNAc(b1-2)Man
How it was run: as §1

[25] = target: Neu5Ac(a2-3)Gal(b1-4)GlcNAc(b1-2)Man(a1-3)[GlcNAc(b1-4)][Neu5Ac(a2-3)Gal(b1-4)GlcNAc(b1-2)Man(a1-6)]Man(b1-4)GlcNAc(b1-4)GlcNAc
How it was run: as §1

[26] = target: Neu5Ac(a2-3)Gal(b1-4)GlcNAc(b1-2)Man(a1-3)[Neu5Ac(a2-3)Gal(b1-4)GlcNAc(b1-2)Man(a1-6)]Man(b1-4)GlcNAc(b1-4)GlcNAc
How it was run: as §1

[27] = target: Neu5Ac(a2-3)Gal(b1-4)GlcNAc(b1-2)Man(a1-3)[Neu5Ac(a2-3)Gal(b1-4)GlcNAc(b1-2)Man(a1-6)]Man(b1-4)GlcNAc(b1-4)[Fuc(a1-6)]GlcNAc
How it was run: as §1

[28] = target: Neu5Ac(a2-3)Gal(b1-4)GlcNAc(b1-2)Man(a1-3)[Neu5Ac(a2-6)Gal(b1-4)GlcNAc(b1-2)Man(a1-6)]Man(b1-4)GlcNAc(b1-4)GlcNAc
How it was run: as §1

[29] = target: Neu5Ac(a2-3)Gal(b1-4)GlcNAc(b1-2)[Neu5Ac(a2-3)Gal(b1-4)GlcNAc(b1-4)]Man(a1-3)[GlcNAc(b1-4)][Neu5Ac(a2-3)Gal(b1-4)GlcNAc(b1-2)[Neu5Ac(a2-3)Gal(b1-4)GlcNAc(b1-6)]Man(a1-6)]Man(b1-4)GlcNAc(b1-4)GlcNAc
How it was run: as §1

[30] = target: Neu5Ac(a2-3)Gal(b1-4)GlcNAc(b1-2)[Neu5Ac(a2-3)Gal(b1-4)GlcNAc(b1-4)]Man(a1-3)[GlcNAc(b1-4)][Neu5Ac(a2-3)Gal(b1-4)GlcNAc(b1-4)Man(a1-6)]Man(b1-4)GlcNAc(b1-4)GlcNAc
How it was run: as §1

[31] = target: Neu5Ac(a2-3)Gal(b1-4)GlcNAc(b1-2)[Neu5Ac(a2-3)Gal(b1-4)GlcNAc(b1-6)]Man(a1-6)[Neu5Ac(a2-3)Gal(b1-4)GlcNAc(b1-2)Man(a1-3)]Man(b1-4)GlcNAc(b1-4)GlcNAc
How it was run: as §1

[32] = target: Neu5Ac(a2-3)Gal(b1-4)GlcNAc(b1-2)[Neu5Ac(a2-3)Gal(b1-4)GlcNAc(b1-6)]Man(a1-6)[Neu5Ac(a2-3)Gal(b1-4)GlcNAc(b1-2)Man(a1-3)][GlcNAc(b1-4)]Man(b1-4)GlcNAc(b1-4)GlcNAc
How it was run: as §1

[33] = target: Neu5Ac(a2-3)Gal(b1-4)GlcNAc(b1-3)Gal
How it was run: as §1

[34] = target: Neu5Ac(a2-3)Gal(b1-4)GlcNAc(b1-3)Gal(b1-3)GlcNAc
How it was run: as §1

[35] = target: Neu5Ac(a2-3)Gal(b1-4)GlcNAc(b1-3)Gal(b1-4)GlcNAc
How it was run: as §1

[36] = target: Neu5Ac(a2-3)Gal(b1-4)GlcNAc(b1-3)Gal(b1-4)GlcNAc(b1-2)Man(a1-3)[Neu5Ac(a2-3)Gal(b1-4)GlcNAc(b1-3)Gal(b1-4)GlcNAc(b1-2)Man(a1-6)]Man(b1-4)GlcNAc(b1-4)GlcNAc
How it was run: as §1

[37] = target: Neu5Ac(a2-3)Gal(b1-4)GlcNAc(b1-3)Gal(b1-4)GlcNAc(b1-3)Gal(b1-4)GlcNAc
How it was run: as §1

[38] = target: Neu5Ac(a2-3)Gal(b1-4)GlcNAc(b1-3)Gal(b1-4)GlcNAc(b1-3)Gal(b1-4)GlcNAc(b1-2)Man(a1-3)[Neu5Ac(a2-3)Gal(b1-4)GlcNAc(b1-3)Gal(b1-4)GlcNAc(b1-3)Gal(b1-4)GlcNAc(b1-2)Man(a1-6)]GalNAc
How it was run: as §1

[39] = target: Neu5Ac(a2-3)Gal(b1-4)GlcNAc(b1-3)Gal(b1-4)GlcNAc(b1-3)GalNAc
How it was run: as §1

[40] = target: Neu5Ac(a2-3)Gal(b1-4)GlcNAc(b1-3)Gal(b1-4)GlcNAc(b1-3)[Neu5Ac(a2-3)Gal(b1-4)GlcNAc(b1-3)Gal(b1-4)GlcNAc(b1-6)]GalNAc
How it was run: as §1

[41] = target: Neu5Ac(a2-3)Gal(b1-4)GlcNAc(b1-3)Gal(b1-4)GlcNAc(b1-6)[Gal(b1-3)]GalNAc
How it was run: as §1

[42] = target: Neu5Ac(a2-3)Gal(b1-4)GlcNAc(b1-3)Gal(b1-4)[Fuc(a1-3)]GlcNAc
How it was run: as §1

[43] = target: Neu5Ac(a2-3)Gal(b1-4)GlcNAc(b1-3)GalNAc
How it was run: as §1

[44] = target: Neu5Ac(a2-3)Gal(b1-4)GlcNAc(b1-3)[Neu5Ac(a2-3)Gal(b1-4)GlcNAc(b1-6)]GalNAc
How it was run: as §1

B1: SP16664D-bth-476-27-476 (Bacteroides thetaiotaomicron) (protein)
chain: DDLEVGKNIDESAYSGIYENNAYLRDGKSNLVSKVVELHGETYATTVKMGLSKTPNTATSAKVKIDAAYLETYNKAHNTDFALYPQDLVTFANEGILTVNANTKSAEVEMTIRAGEGLQEDKTYAIPVAISDQSSDITIKDEDAKHCIYLVKDMRNAGDAYKGEGVMQGYLFFEVNDVNPLNTLSFQLENGKLLWDVVVLFAANINYDAEAGRPRVQCNPNVQYLLDNNETLLQPLRRRGVKVLLGLLGNHDITGLAQLSEQGAKDFAREVAQYCKAYNLDGVNYDDEYSNSPDLSNPSLTNPSTAAAARLCYETKQAMPDKLVTVFDWGQMYGVATVDGVDAKEWIDIVVANYGSAAYPIGQMTKKQCSGISMEFNLGGGGSLSASKAQSMIDGGYGWFMGFAPSPAKYGSVFSRLQGGGEVLYGSNVAAPTIFYKKNDPTPYKYPDDL
Q: How did the “glycan array binding signal (z-score)” value [1] turn out when B1 was run?
A: -0.032

Q: What about the “glycan array binding signal (z-score)” value [2] of the same binder?
A: -0.234

Q: And the “glycan array binding signal (z-score)” value [3]?
A: -0.158

Q: And the “glycan array binding signal (z-score)” value [4]?
A: 0.089

Q: What about the “glycan array binding signal (z-score)” value [5] of the same binder?
A: -0.227

Q: What about the “glycan array binding signal (z-score)” value [6] of the same binder?
A: -0.158

Q: And the “glycan array binding signal (z-score)” value [7]?
A: -0.33

Q: What about the “glycan array binding signal (z-score)” value [8] of the same binder?
A: -0.152

Q: What about the “glycan array binding signal (z-score)” value [9] of the same binder?
A: -0.32

Q: And the “glycan array binding signal (z-score)” value [10]?
A: -0.183

Q: What about the “glycan array binding signal (z-score)” value [11] of the same binder?
A: -0.279

Q: And the “glycan array binding signal (z-score)” value [12]?
A: -0.364

Q: And the “glycan array binding signal (z-score)” value [13]?
A: -0.46

Q: What about the “glycan array binding signal (z-score)” value [14] of the same binder?
A: 0.137

Q: And the “glycan array binding signal (z-score)” value [15]?
A: -0.262

Q: And the “glycan array binding signal (z-score)” value [16]?
A: -0.279

Q: And the “glycan array binding signal (z-score)” value [17]?
A: -0.341

Q: And the “glycan array binding signal (z-score)” value [18]?
A: -0.271

Q: And the “glycan array binding signal (z-score)” value [19]?
A: 0.012

Q: What about the “glycan array binding signal (z-score)” value [20] of the same binder?
A: -0.118

Q: What about the “glycan array binding signal (z-score)” value [21] of the same binder?
A: -0.206

Q: What about the “glycan array binding signal (z-score)” value [22] of the same binder?
A: -0.171

Q: And the “glycan array binding signal (z-score)” value (Neu5Ac(a2-3)Gal(b1-4)Glc)?
A: -0.011

Q: What about the “glycan array binding signal (z-score)” value [23] of the same binder?
A: -0.347

Q: What about the “glycan array binding signal (z-score)” value [24] of the same binder?
A: -0.18

Q: And the “glycan array binding signal (z-score)” value [25]?
A: -0.407

Q: And the “glycan array binding signal (z-score)” value [26]?
A: -0.12

Q: What about the “glycan array binding signal (z-score)” value [27] of the same binder?
A: 0.029

Q: What about the “glycan array binding signal (z-score)” value [28] of the same binder?
A: -0.195

Q: What about the “glycan array binding signal (z-score)” value [29] of the same binder?
A: -0.043

Q: What about the “glycan array binding signal (z-score)” value [30] of the same binder?
A: -0.029

Q: What about the “glycan array binding signal (z-score)” value [31] of the same binder?
A: -0.218

Q: What about the “glycan array binding signal (z-score)” value [32] of the same binder?
A: 0.105

Q: What about the “glycan array binding signal (z-score)” value [33] of the same binder?
A: -0.117

Q: And the “glycan array binding signal (z-score)” value [34]?
A: -0.23

Q: What about the “glycan array binding signal (z-score)” value [35] of the same binder?
A: -0.351

Q: And the “glycan array binding signal (z-score)” value [36]?
A: -0.218

Q: What about the “glycan array binding signal (z-score)” value [37] of the same binder?
A: -0.287

Q: What about the “glycan array binding signal (z-score)” value [38] of the same binder?
A: 0.099

Q: And the “glycan array binding signal (z-score)” value [39]?
A: -0.145

Q: What about the “glycan array binding signal (z-score)” value [40] of the same binder?
A: -0.185

Q: What about the “glycan array binding signal (z-score)” value [41] of the same binder?
A: -0.314

Q: And the “glycan array binding signal (z-score)” value [42]?
A: 0.058

Q: And the “glycan array binding signal (z-score)” value [43]?
A: -0.227

Q: And the “glycan array binding signal (z-score)” value [44]?
A: -0.389
